Among the data in paper doi:10.1101/2024.11.04.621988 are binding values, retold here.

Sequences of proteins named here, by UniProt entry; tags and fusion partners are left off.
UniProt P43583: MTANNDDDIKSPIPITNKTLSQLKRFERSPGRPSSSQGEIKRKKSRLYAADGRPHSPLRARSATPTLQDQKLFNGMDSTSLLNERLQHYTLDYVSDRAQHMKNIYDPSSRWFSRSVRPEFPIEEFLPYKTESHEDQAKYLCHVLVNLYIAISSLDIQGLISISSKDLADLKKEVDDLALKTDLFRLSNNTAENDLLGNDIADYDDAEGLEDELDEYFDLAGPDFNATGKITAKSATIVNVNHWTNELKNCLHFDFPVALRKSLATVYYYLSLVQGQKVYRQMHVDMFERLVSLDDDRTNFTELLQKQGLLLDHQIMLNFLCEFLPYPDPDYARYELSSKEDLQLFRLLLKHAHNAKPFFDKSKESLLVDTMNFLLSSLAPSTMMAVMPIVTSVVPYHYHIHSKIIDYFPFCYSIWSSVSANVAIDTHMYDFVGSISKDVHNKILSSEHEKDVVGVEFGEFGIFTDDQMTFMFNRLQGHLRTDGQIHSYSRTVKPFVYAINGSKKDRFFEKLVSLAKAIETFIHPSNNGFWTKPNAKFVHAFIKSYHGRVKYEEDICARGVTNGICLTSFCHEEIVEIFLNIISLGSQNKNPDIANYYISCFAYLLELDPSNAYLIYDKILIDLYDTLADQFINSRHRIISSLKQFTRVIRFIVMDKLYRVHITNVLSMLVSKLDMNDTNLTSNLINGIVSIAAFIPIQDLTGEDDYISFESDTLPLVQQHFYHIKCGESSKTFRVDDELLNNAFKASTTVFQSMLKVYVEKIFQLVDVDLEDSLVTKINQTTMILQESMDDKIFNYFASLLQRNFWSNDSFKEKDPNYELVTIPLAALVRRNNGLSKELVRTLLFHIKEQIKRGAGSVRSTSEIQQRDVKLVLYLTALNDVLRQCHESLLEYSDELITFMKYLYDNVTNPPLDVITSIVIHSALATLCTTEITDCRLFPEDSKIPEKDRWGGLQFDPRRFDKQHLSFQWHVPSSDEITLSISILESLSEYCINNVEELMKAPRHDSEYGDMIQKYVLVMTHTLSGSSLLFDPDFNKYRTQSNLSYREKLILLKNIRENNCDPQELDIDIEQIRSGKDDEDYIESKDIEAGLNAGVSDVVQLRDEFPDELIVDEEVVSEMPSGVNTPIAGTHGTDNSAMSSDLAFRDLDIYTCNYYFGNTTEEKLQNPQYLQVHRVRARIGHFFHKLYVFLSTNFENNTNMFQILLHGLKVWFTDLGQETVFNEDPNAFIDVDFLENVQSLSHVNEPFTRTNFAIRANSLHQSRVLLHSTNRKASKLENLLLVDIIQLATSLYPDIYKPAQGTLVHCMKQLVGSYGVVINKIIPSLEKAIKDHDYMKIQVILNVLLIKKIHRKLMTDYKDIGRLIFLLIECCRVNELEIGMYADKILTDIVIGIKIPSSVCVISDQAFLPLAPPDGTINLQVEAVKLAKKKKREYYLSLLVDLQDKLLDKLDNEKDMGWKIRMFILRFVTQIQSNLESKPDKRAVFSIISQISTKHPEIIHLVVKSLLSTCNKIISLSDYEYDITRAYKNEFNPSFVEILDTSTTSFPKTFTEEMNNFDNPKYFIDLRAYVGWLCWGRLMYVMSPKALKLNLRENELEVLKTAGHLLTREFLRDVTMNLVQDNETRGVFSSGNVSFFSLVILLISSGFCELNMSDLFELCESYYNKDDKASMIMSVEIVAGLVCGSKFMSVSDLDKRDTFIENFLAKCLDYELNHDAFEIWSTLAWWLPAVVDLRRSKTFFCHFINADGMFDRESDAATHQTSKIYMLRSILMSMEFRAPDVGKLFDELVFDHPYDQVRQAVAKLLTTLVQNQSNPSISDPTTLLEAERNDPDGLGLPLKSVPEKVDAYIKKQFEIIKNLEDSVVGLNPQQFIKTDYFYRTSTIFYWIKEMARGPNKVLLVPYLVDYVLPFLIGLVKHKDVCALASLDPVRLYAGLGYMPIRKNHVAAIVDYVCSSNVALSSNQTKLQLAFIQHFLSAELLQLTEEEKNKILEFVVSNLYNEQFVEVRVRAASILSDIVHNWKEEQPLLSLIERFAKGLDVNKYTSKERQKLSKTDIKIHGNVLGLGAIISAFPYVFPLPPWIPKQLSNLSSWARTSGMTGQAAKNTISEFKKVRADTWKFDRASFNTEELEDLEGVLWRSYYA

Results are given in words; binding and its absence hold for the method and conditions named. For some assays here: Binding seen in cells or lysates may run through a third protein. Some entries that bind do so weakly or less than the wild type. For some assays here: Where a sequence is shown, tags or fusion partners need not be part of it.

In assay [1] the target is T1, proteasome core particle subunit α3 (yeast (endogenous in the yeast strain)) (UniProt P23638).
T1 sequence: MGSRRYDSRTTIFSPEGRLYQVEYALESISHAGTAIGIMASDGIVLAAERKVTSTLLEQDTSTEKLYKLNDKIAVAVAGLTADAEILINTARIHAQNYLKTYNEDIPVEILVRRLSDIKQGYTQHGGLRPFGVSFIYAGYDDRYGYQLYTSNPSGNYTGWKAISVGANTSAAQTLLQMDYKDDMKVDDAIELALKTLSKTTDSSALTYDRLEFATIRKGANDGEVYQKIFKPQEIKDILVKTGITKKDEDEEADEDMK
Put plainly: cryo-EM structure; assembly intermediates formed in a pba1Δ yeast strain and purified as complexes through Ump1-TAP (IgG beads, TEV, calmodulin resin, EGTA elution); 1.8 or 0.9 mg/mL vitrified; five complexes sorted from one data set.

Assay [2] addresses T2, proteasome core particle subunit α5 (yeast (endogenous in the yeast strain)) (UniProt P32379).
T2 sequence: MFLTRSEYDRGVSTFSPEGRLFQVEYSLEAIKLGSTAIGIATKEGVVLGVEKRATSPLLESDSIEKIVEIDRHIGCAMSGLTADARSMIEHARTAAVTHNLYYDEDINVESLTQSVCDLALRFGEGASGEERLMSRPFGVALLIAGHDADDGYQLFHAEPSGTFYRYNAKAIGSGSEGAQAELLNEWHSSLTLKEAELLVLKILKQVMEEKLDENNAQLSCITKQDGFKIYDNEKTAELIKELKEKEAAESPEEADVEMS
Described as above.

Assay [3] deals with T3, Ump1 (C-terminally TAP-tagged, after TEV cleavage, CBP part kept) (yeast) (UniProt P38293).
T3 sequence: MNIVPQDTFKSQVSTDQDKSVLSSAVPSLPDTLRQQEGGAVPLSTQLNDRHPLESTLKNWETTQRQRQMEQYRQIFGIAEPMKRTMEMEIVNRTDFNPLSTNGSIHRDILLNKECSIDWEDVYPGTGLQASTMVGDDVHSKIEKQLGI
The assay is described as above.

Assay [4] addresses T4, Pba4-TAP (yeast) (UniProt Q12245).
T4 sequence: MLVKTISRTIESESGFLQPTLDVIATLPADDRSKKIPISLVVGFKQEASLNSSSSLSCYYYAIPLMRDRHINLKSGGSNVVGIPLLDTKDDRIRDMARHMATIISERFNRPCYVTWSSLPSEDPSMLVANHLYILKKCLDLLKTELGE
The experiment in a line: pull-down; TAP-tagged bait (Ump1-TAP or Pba4-TAP) captured from yeast lysate on calmodulin resin, 1 h at 4 °C, 50 mM Tris-HCl pH 7.5, 5 mM MgCl2, 1 mM ATP, 2 mM CaCl2; washes with 50 mM NaCl; SDS-PAGE and immunoblot; some strains with Blm10 overexpressed. On the technique in general: In western blotting, separated proteins are transferred to a membrane and probed.

For Blm10 (from UniProt P43583 1-2143), the binding entry in assay [1] is given as “binds”; in assay [2] it was “binds”; in assay [3] it was “no binding”; in assay [4] it was “binds”.

B1: Pba1/Pba2 (complex, UniProt Q05778 1-276; P36040 1-267)
chain 1: MLFKQWNDLPEPKHLLDLPEISKNLQSLEVCPVPKVEFPQDLDVPQYSTAVITTKIMNPLFPKNLLQLTSIGEIKTTLTVKSPSLPQSSGKHSWNYDENFPNEVDPDQKNDTADETVYGFSFPIYSFGKTLLFSMEENFISISPIFGNMISRSIISQLAQFSPDIIVIGTSDKIASMKVMTENECTLQPPEFITGFIGSVLTQLIVGPSKGLKFKCLVAPSEGPNGFEKLSLSDMGSLVDLCGQWLGFEPSRYSEECYRLWRCDSAAIGAQSGLYI
chain 2: MSCLVLPLVSVGNIPQLSIDWLLNSQANEWEYLEALDSKYLVEFVGPLDRPEDGSDSLYKDADMKYSSALEVFYNKKRGLFAIQQRTPLVSVNYLNNFIVEIILPFLSKYNISEICIWDSLYAMEDENGVIVRPQEVYSLGEFYFDDEAELLSNLHLNDQESMVNNWLHFTPTSFQDKISVDQPIFKILFQILNASQRPKALRSIKYCSCLANEGDNSLDSQQFLQWIISQKVIKNAPPIVKFVRPISWQGAYGMADARDKFVDLYN
As to B1, the binding result in assay [4] is given as “binds”.
